Laboratory results: patent US20240254252A1 (Genmab, published 2024)
Read-outs that look alike come from different tables or passages of the source. Blank lines part the entries; values can stand above or below the binder they belong to.

Legend:
Assay in all cases: cell-based or functional assay
[1] = biological target: T1, human CD38 expressed on the cell surface (human, UniProt P28907 1-300)
[2] = biological target: T1, human CD38 expressed on the cell surface; remark: listed apart in the source
[3] = biological target: T1, human CD38 expressed on the cell surface; remark: listed apart in the source

- EC50 of lysis (CDC, Daudi cells) [1]: 0.25 µg/mL
- EC50 of lysis (CDC, Ramos cells) [1]: 0.158 µg/mL
- EC50 of lysis (CDC, Wien-133 cells) [1]: 0.193 µg/mL
- percent lysis (CDC, Ramos and Daudi cells) [2]: ~50%
B1: IgG1-C (antibody)
heavy: QVQLVQSGAEVKKPGSSVKVSCKAFGGTFSSYAISWVRQAPGQGLEWMGRIIRFLGIANYAQKFQGRVTLIADKSTNTAYMELSSLRSEDTAVYYCAGEPGERDPDAVDIWGQGTMVTVSSASTKGPSVFPLAPSSKSTSGGTAALGCLVKDYFPEPVTVSWNSGALTSGVHTFPAVLQSSGLYSLSSVVTVPSSSLGTQTYICNVNHKPSNTKVDKRV[not shown - human IgG1 Fc]
light: [not shown - about 200 residues]

- EC50 of lysis (CDC, Daudi cells) [1]: 0.019 µg/mL
- EC50 of lysis (CDC, NALM-16 cells) [1]: 0.022 µg/mL
- EC50 of lysis (CDC, REH cells) [1]: 0.017 µg/mL
- EC50 of lysis (CDC, RS4;11 cells) [1]: 0.056 µg/mL
- EC50 of lysis (CDC, Ramos cells) [1]: 0.014 µg/mL
- EC50 of lysis (CDC, U266 cells) [1]: 0.052 µg/mL
- EC50 of lysis (CDC, Wien-133 cells) [1]: 0.015 µg/mL
- EC50 of lysis (CDC, 697 cells) [3]: 0.087 µg/mL
- EC50 of lysis (CDC, AML-193 cells) [3]: 0.032 µg/mL
- EC50 of lysis (CDC, DOHH2 cells) [3]: 0.115 µg/mL
- EC50 of lysis (CDC, Daudi cells) [3]: 0.03 µg/mL
- EC50 of lysis (CDC, HL-60 cells) [3]: 0.07 µg/mL
- EC50 of lysis (CDC, JVM-3 cells) [3]: 0.11 µg/mL
- EC50 of lysis (CDC, JVM-13 cells) [3]: 0.146 µg/mL
- EC50 of lysis (CDC, Jeko-1 cells) [3]: 0.108 µg/mL
- EC50 of lysis (CDC, KG-1 cells) [3]: 0.104 µg/mL
- EC50 of lysis (CDC, MEGAL cells) [3]: 0.17 µg/mL
- EC50 of lysis (CDC, ML-2 cells) [3]: 0.023 µg/mL
- EC50 of lysis (CDC, MOLM-13 cells) [3]: 0.017 µg/mL
- EC50 of lysis (CDC, NALM-16 cells) [3]: 0.022 µg/mL
- EC50 of lysis (CDC, Nomo-1 cells) [3]: 0.039 µg/mL
- EC50 of lysis (CDC, Oci-AML3 cells) [3]: 0.046 µg/mL
- EC50 of lysis (CDC, Oci-Ly18 cells) [3]: 0.057 µg/mL
- EC50 of lysis (CDC, Oci-Ly-7 cells) [3]: 0.012 µg/mL
- EC50 of lysis (CDC, Oci-Ly-19 cells) [3]: 0.031 µg/mL
- EC50 of lysis (CDC, REH cells) [3]: 0.039 µg/mL
- EC50 of lysis (CDC, RS4;11 cells) [3]: 0.093 µg/mL
- EC50 of lysis (CDC, Raji cells) [3]: 0.036 µg/mL
- EC50 of lysis (CDC, Ramos cells) [3]: 0.013 µg/mL
- EC50 of lysis (CDC, SU-DHL-4 cells) [3]: 0.073 µg/mL
- EC50 of lysis (CDC, SU-DHL-8 cells) [3]: 0.009 µg/mL
- EC50 of lysis (CDC, THP-1 cells) [3]: 0.075 µg/mL
- EC50 of lysis (CDC, U266 cells) [3]: 0.052 µg/mL
- EC50 of lysis (CDC, U937 cells) [3]: 0.057 µg/mL
- EC50 of lysis (CDC, WSU-DLCL2 cells) [3]: 0.345 µg/mL
- EC50 of lysis (CDC, Wien133 cells) [3]: 0.015 µg/mL
- EC50 of lysis (CDC, Z-138 cells) [3]: 0.106 µg/mL
- EC50 of lysis (CDC, monomac6 cells) [3]: 0.093 µg/mL
- percent lysis (CDC, Ramos and Daudi cells) [2]: ≤ 100%
B2: IgG1-C-E430G (antibody)
heavy: QVQLVQSGAEVKKPGSSVKVSCKAFGGTFSSYAISWVRQAPGQGLEWMGRIIRFLGIANYAQKFQGRVTLIADKSTNTAYMELSSLRSEDTAVYYCAGEPGERDPDAVDIWGQGTMVTVSSASTKGPSVFPLAPSSKSTSGGTAALGCLVKDYFPEPVTVSWNSGALTSGVHTFPAVLQSSGLYSLSSVVTVPSSSLGTQTYICNVNHKPSNTKVDKRV[not shown - human IgG1 Fc with E430G (EU numbers)]
light: [not shown - about 200 residues]
notes: also called E430G mutated C; IgG-C-E430G
